Consider 19 variants from the RNAGym collection of RNA variant scans (doi:10.1073/pnas.2313332121).

This sample is rich in variants without activity.

B1: TPR 5TU (parent)
chain: GGAUCUUCUCGAUCUAACAAAAAAGACAAAUCUGCCACAAAGCUUGAGAGCAUCUUCGGAUGCAGAGGCGGCAGCCUUCGGUGGCGCGAUAGCGCCAACGUUCUCAACUAUGACACGCAAAACGCGUGCUCCGUUGAAUGGAGUUUAUCAUG

Variants of B1 are the subject of this data set. Put plainly: polymerase ribozyme fitness, log enrichment relative to wild type (log ratio); higher = more active; in vitro selection for triplet polymerase activity. A digest of the protocol: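 Both subunits of a heterodimeric triplet polymerase ribozyme were given their own mutant library, built by PCR and transcribed. Each library was annealed with a biotinylated primer, the partner subunit and triplets, incubated frozen at −7 °C, and its extended constructs gel-excised, captured on streptavidin beads and amplified by RT-PCR, all in one round done in triplicate. Fitness is the logarithm of genotype enrichment relative to wild-type enrichment, with replicates averaged by inverse-variance weighting. That logarithm is base 2, and Illumina-sequenced genotypes needed ≥10 input reads and ≥1 read per output.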
As to GGAUCUUCUCGAUCUAACAAAAAAGACAAAUCUACCACAAAGCUUGAGAGCAUCUUCGGAUGCAUAGGGGGCAGCCUUCGGUGGCGCGAUUCCGCCAACGUUCUCAACUAUGACACGCAAAACGCGUGCUCCGUUGAAUGGAGUUUAUCAUG [G34A G65U C69G A91U G92C], the “polymerase ribozyme fitness (log ratio)” value was no more than -4.2. For GGAUCUUCUCGAUCUAACAAAAAAGACAAAUCUCCCACAAAGCUUGAGAGCAUCUUCGAAUGCAGAGGCGGCAGCCUUCGGUGGCGCGAUAGCGCCAACGUUCUCAACUAUGACACGCAAAACGCGUGCUCCGUUGAAUGUUGUUUAUCAUG [G34C G59A G141U A142U], the “polymerase ribozyme fitness (log ratio)” value is no more than -4.2. Consider GGAUCUUCUCGAUCUAACAAAAAAGACAAAUCUCCCACAAAGCUUGAGAGCAUCUUCGGAUGCAGAGGCGGCAGCUUUCGGUGGCGGGAUAGCGCCAACGUUCUCAACUAUGACACGCAAAACGCGUGCUCCGUUGAAUGGAGUUUAUCAUG [G34C C76U C87G], for which the “polymerase ribozyme fitness (log ratio)” value was no more than -4.2. As for GGAUCUUCUCGAUCUAACAAAAAAGACAAAUCGGCCACAAAGCUUGAGAGCAUCUUCGGAUGCAGAGGCGGCAGCCUUAGGUGGCGCGAUGGCGCCAACGUUCUCAACUAUGACACGCAAAACGCGUGCUCCGUUGAAUGGAGUUUAUCAUG [U33G C79A A91G], the “polymerase ribozyme fitness (log ratio)” value was no more than -4.2. With GGAUCUUCUCGAUCUAACAAAAAAGACAAAUCUCCCACAACGCUUGAGAGCAUCUUCGGAUGCAGAGGCGGCAGCCUUUGGUGGCGCGAUAGCGCCAACGUUCUCAACUAUGACACGCAAAACGCGUGCUCCGUUGAAUGGAGUUUAUCAGG [G34C A41C C79U U151G] the figure was no more than -4.2.

Regarding GGAUCUUCUCGAUCUAACAAAAAAGACAAAUCUACCACAAAGCUUGAGAGCCUCUUCGGAUGCAGAGGCGGCAGCCUUCGGUGGCGCGAUAGCGCCAACGUUCUCAACUAUGACACGCAAAUCGCGUGCUCCGUCGAAUGGAGUUUAUCAUG [G34A A52C A122U U135C], the “polymerase ribozyme fitness (log ratio)” value is no more than -4.2.

As for GGAUCUUCUCGAUCUAACAAAAAAGACAAAUCUACCACAAAGCUUGAGAGCAUCUUCCGAUGCGGAGGCGGCAGCCUUUGGUGGCGCGAUAUCGCCAACGUUCUCAACUAUGACACGCAAAACGCGUGCUCCGUUGAAUGGAGUUUAUCAUG [G34A G58C A64G C79U G92U], the “polymerase ribozyme fitness (log ratio)” value is no more than -4.2. With GGAUCUUCUCGAUCUAACAAAAAAGACAAAUCGGCCACAAAGCUUGAUAGCAUCUUCGGAUGCAGAGGCGGCAGCCUUCGGUGGCUCGAUAGCGCCAACGUUCUCAACUAUGACACGCAAAACGCGUGCUCCGUUGAAUGGAUGUUAUCAUG [U33G G48U G86U G143U U144G] the figure was no more than -4.2; with GGAUCUUCUCGAUCUAACAAAAAAGACAAAUCGGCCACAAAGCUUGAGAGCAUCUUCGGAUGCAGAGGCGGCAGCCUUCGGUGGCGCGAUAGCUCCAACGUUCUCAACUAUGACACUCAAAACGCGUGCUCCGUUGAAUGGAGUUUAUAAUG [U33G G94U G117U C149A], no more than -4.2. The result for GGAUCUUCUCGAUCUAACAAAAAAGACAAAUCUACCACAAAUCUUGAGAGCAUCUUCGGAUGCAGAGGCGGCAGCCUUCGGUGGCGCGAUUGCGGCAACGUUCUCAACUAUGACACGCAAAACGCGUGCUCCGUUGAAUGGAGUUUAUCAUG [G34A G42U A91U C95G] reads no more than -4.2. With GGAUCUUCUCGAUCUAACAAAAAAGACAAAUCUCCCACAAAGCUUGACAGCAUCUUCGGAUGCAGAGGCGGCAGUCUUCGAUGGCGCGAUAGCGCCAACGUUCUCAUCUAUGACACGCAAAACGCGUGCUCCGUUGAAUAGAGUUUAUCAUG [G34C G48C C75U G81A A107U G140A] the figure was no more than -4.2; with GGAUCUUCUCGAUCUAACAAAAAAGACAAAUCUUCCUCAAAGCUUGAGAGCAUCUUCGGAUGCAGAGGCGGCAGACUUCGGUGGCGUGAUAGCGCCAACGUUCUAAACUAUGACGCGCAAAACGCGUGCUCUGUUGAAUGGAGUUUAUCAUG [G34U A37U C75A C87U C105A A115G C132U], no more than -4.2; with GGAUCUUCUCGAUCUAACAAAAAAGACAAAUCGGCCACAAAGCUUGAGAGCAUCUUCGGAUGCAGAGGCGGCAGACUUCGGUGGCGGGAUAGCGCCAACGUUCUCAACAAUGUCACUCAAAACGCGUGCUCCGUUGAAUGGAGUUUAUCAUG [U33G C75A C87G U109A A113U G117U], no more than -4.2. On to GGAUCUUCUCGAUCUAACAAAAAAGACAAAUCUACCACAAAGCUUGAGAGCAUCUUCGGAUGCAGAGGCGGCAGCCUGCGGUGGCGCAAUAGCGUCAACGUUCUCAACUAUGACACGCAAAACGCGUGCUCCGUUGAAUGAAGUUUAUCAUG [G34A U78G G88A C95U G141A], for which the “polymerase ribozyme fitness (log ratio)” value is no more than -4.2.

In the case of GGAUCUUCUCGAUCUAACAAAAAAGACAAAUCUUGCACAAAGCUUGAGAGCAUCUUCGGCUGCAGAGGCGGUAGCCUUCGGUGGCGCGAUAGGGCCAACGUUCCCAACUAUGAUACGCAAAACGCGUGCUCCGUUGAAUGGAGAAUAUCAUG [G34U C35G A60C C72U C93G U104C C114U U144A U145A], the “polymerase ribozyme fitness (log ratio)” value was no more than -4.2.

On to GGAUCUUCUCGAUCUAACAAAAAAGACAAAUCUACCACAAAGCUUGAGCGCAUCUUCGGAUGCAGACGCGGCAGCCUUCGGUGGAGCGAUAGCGCCAACGUUCUCAACUAUGACACGCAAAACCCGUGCUCCGUUGAAUGGAGUUUAUCAUG [G34A A49C G67C C85A G124C], for which the “polymerase ribozyme fitness (log ratio)” value was no more than -4.2. With GGAUCUUCUCGAUCUAACAAAAAAGACAAAUCUCCCACAAAGCUUGAGAGCAUCUUCAGAUGCAGAGGCGGCAGCCUUCGGUGGCGUGAUAGUGCCAAUGUUCUCAACUAUGACACGCAAAACGCGUGCUCCGUUGAAUGGAGUUUAUCAUG [G34C G58A C87U C93U C99U] the figure was no more than -4.2; with GGAUCUUCUCGAUCUAACAAAAAAGACAAAUCGGCCACAAAGCUUGAGAGCAUCAUUGGAUGCAGAGUCGGCAGCCUUCGGUGGGGCGAUAGGGCCAACGUUCUCAACUAUGACACGUAAAACGCGUGCUCCGUUGAAUGGAGUUUAUCAUG [U33G U55A C57U G68U C85G C93G C118U], no more than -4.2. In the case of GGAUCUUCUCGAUCUAACAAAAAAGACAAAUCGGCCACAAAGCUUGAGAGCAUCUUCGGAUGCAGAGGCGGCAGCCUUCGGUGGCGCGAUAACGCCAACGUUCUCAACCAUGACACGCAAAACGCAUGCUCCGUUGAAUGGAGUUUAUCAUG [U33G G92A U109C G126A], the “polymerase ribozyme fitness (log ratio)” value was no more than -4.2.
